Measurements: PMC4336329 (PLoS ONE, 2015)
Screen size: about 310,000 compounds; about 14,000 (4.5%) showed an effect of 50% or more. The effect is printed as a negative number. This is one part of the list.

Biological target: human ether-à-go-go-related gene (hERG) potassium channel (human, UniProt Q12809)
Experiment: primary screen, population patch clamp on CHO cells stably expressing hERG
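Also: peak tail current of the secondary pulse compared with the same well before compound.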

Sequence of human ether-à-go-go-related gene (hERG) potassium channel (Q12809 whole entry, looked up): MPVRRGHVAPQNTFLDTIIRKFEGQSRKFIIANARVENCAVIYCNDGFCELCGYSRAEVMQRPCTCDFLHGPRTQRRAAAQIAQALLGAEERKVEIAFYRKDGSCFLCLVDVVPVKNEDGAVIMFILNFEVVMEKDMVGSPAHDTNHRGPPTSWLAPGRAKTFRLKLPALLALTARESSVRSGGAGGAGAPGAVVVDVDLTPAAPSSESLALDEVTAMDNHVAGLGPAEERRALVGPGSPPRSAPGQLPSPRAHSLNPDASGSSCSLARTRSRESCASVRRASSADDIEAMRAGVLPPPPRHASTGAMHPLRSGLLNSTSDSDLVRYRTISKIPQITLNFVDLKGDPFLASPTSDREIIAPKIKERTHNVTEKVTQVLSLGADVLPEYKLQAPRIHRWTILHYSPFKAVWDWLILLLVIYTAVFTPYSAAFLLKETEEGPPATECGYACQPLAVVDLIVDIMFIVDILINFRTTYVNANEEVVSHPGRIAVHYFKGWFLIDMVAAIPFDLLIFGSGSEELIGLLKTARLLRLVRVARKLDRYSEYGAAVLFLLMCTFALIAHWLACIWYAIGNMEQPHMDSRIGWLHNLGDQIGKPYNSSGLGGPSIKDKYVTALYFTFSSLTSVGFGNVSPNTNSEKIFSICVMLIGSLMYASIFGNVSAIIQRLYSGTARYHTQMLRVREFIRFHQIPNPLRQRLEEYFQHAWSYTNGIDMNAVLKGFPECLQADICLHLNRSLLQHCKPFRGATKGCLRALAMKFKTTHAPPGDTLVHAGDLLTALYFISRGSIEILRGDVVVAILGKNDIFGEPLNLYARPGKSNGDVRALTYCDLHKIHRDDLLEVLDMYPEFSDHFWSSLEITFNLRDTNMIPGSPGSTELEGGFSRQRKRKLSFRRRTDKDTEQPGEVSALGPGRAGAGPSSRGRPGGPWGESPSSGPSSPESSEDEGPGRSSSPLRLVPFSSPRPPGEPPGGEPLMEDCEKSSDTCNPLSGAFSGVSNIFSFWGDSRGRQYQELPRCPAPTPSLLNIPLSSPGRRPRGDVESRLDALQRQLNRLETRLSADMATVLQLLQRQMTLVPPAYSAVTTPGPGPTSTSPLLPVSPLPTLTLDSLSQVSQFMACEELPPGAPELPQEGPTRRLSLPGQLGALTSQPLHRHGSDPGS

Going from `CCN(CC)c1ccc2c(Nc3ccccc3)c(C=O)c(=O)oc2c1` to `CCOc1ccc2oc(C(=O)N(CC)CC(=O)Nc3c(F)cccc3F)c(C)c2c1`, the “hERG current change (%, negative = inhibition) at 10uM” value falls from 14.1% to -1.01%.

Going from `Cc1nnc(Sc2nc3c(c(=O)n(C)c(=O)n3C)n2Cc2ccccc2Cl)s1` to `C=CCn1c2ccccc2c2nnc(SCC(=O)O)nc21`, the “hERG current change (%, negative = inhibition) at 10uM” value rises from -0.861% to 28.6%.

Compared with `CCC(C)NC(=O)c1ccc(C)c(NC(=O)C2=C(C)OCCS2)c1` (stereo not drawn), `Cc1ccc(/C=N/NC(=O)C(C)NC(=O)c2ccccc2)cc1` (stereo not drawn) is higher in “hERG current change (%, negative = inhibition) at 10uM” value: -12.9% for the first, 10.2% for the second.

First: O=C(Nc1ccc(S(=O)(=O)Nc2nccs2)cc1)c1nn(-c2ccc(F)cc2)ccc1=O
Second: CN(C)S(=O)(=O)c1ccc(-n2cccc2)cc1
The “hERG current change (%, negative = inhibition) at 10uM” value of the first is higher: -11% for the first, -16.8% for the second.

First: O=C(O)C1CCCCC1C(=O)NCCC(c1ccccc1)c1ccccc1 (stereo not drawn)
Second: CC(C(O)c1ccc(O)cc1)N1CCC(Cc2ccccc2)CC1.O.O=C(O)C(O)C(O)C(=O)O (stereo not drawn)
The “hERG current change (%, negative = inhibition) at 10uM” value of the first is higher: 14.1% for the first, -65.4% for the second.

First: O=[N+]([O-])c1c(Nc2ccc(O)cc2)cc(Cl)c2nonc12
Second: Cl.OCCNc1nc(Nc2ccc(Cl)c(Cl)c2)nc2ccccc12
The “hERG current change (%, negative = inhibition) at 10uM” value of the first is lower: -26.1% for the first, 14.5% for the second.

Going from `CCNc1nc(NC(C)(C)C)nc(SC)n1` to `CCn1c(SCC(=O)Nc2cc(NC(C)=O)ccc2OC)nnc1-c1cccnc1`, the “hERG current change (%, negative = inhibition) at 10uM” value rises from -22.7% to 5.99%.

First: CCn1c(COc2ccccc2OC)nc2ccccc21
Second: COc1ccccc1NC(=O)c1cc(C)nc2ccccc12
The “hERG current change (%, negative = inhibition) at 10uM” value of the first is higher: 2.28% for the first, 0.683% for the second.

First: CSCCC(NC(=O)COc1ccccc1)C(=O)N1CCC(C(N)=O)CC1 (stereo not drawn)
Second: CCOC(=O)NC(=O)CSc1ccc(S(=O)(=O)N(C)C2CCCCC2)cn1
The “hERG current change (%, negative = inhibition) at 10uM” value of the first is higher: 9.8% for the first, -39.3% for the second.

First: Cc1ccc2c(c1)CCCN2CC(=O)Nc1cc(S(=O)(=O)N2CCCC2)ccc1Cl
Second: COc1ccc(S(=O)(=O)N2CCN(C(=O)COc3ccc(C)c(C)c3)CC2)cc1OC
The “hERG current change (%, negative = inhibition) at 10uM” value of the first is higher: -17.3% for the first, -37.1% for the second.

First: O=C(NCCCO)/C(=C/c1ccco1)NC(=O)c1ccc(Br)o1
Second: CCOc1ccc(NC(=O)C(=O)NCCCn2ccnc2)cc1
The “hERG current change (%, negative = inhibition) at 10uM” value of the first is higher: 16.7% for the first, -1.54% for the second.

First: c1ccc(Nc2ncnc3sc4c(c23)CCC4)cc1
Second: O=c1c2c3c(sc2nc2n1CCCS2)CCCC3
The “hERG current change (%, negative = inhibition) at 10uM” value of the first is lower: 0.132% for the first, 3.04% for the second.

Compared with `O=C(CNC(=O)c1ccccc1C(F)(F)F)N/N=C/c1cccs1`, `Cl.OCCN1CCN(CC/C=C2/c3ccccc3Sc3ccc(C(F)(F)F)cc32)CC1` is lower in “hERG current change (%, negative = inhibition) at 10uM” value: 2.99% for the first, -47.1% for the second.

Compared with `Cc1cccc(NCCC#N)c1`, `COc1cc(NS(=O)(=O)c2ccc(N)cc2)ncn1` is higher in “hERG current change (%, negative = inhibition) at 10uM” value: 17.3% for the first, 35.7% for the second.

Going from `CC1=CCC(/C=N\Nc2nnc3c(n2)[nH]c2ccccc23)CC1` (stereo not drawn) to `COc1ccc(CCN2C(=O)C3CC=C(C)CC3C2=O)cc1OC` (stereo not drawn), the “hERG current change (%, negative = inhibition) at 10uM” value falls from -5.57% to -16.2%.

Going from `O=C(NCCCn1ccnc1)C(F)(F)C(F)(F)C(=O)NCCCn1ccnc1` to `CC12CCC(C(=O)NCc3ccccc3)(OC1=O)C2(C)C` (stereo not drawn), the “hERG current change (%, negative = inhibition) at 10uM” value falls from 8.19% to -1.62%.

Going from `C=CCN(Cc1nc(-c2cc(OC)ccc2OC)oc1C)C1CCS(=O)(=O)C1` (stereo not drawn) to `COc1ccc(C(=O)c2sc(NC(C)C)nc2N)cc1OC`, the “hERG current change (%, negative = inhibition) at 10uM” value falls from 8.4% to -1.48%.

Compared with `O=C1C2CCCN2C(c2ccc(Cl)cc2)N1c1ccccn1` (stereo not drawn), `COc1ccc(N2CCN(C(=O)c3cccc(Cn4cc(Cl)cn4)c3)CC2)cc1` is lower in “hERG current change (%, negative = inhibition) at 10uM” value: -3.03% for the first, -48% for the second.

Going from `CN1CCN(C(=O)C2CCN(S(=O)(=O)c3ccc4c(c3)oc(=O)n4C)CC2)CC1` to `CS(=O)(=O)N1CCC(C(=O)Nc2ccc(F)c(Cl)c2)CC1`, the “hERG current change (%, negative = inhibition) at 10uM” value rises from -8.14% to 7.17%.

Compared with `COc1cccc(N2C(=O)NC(=O)/C(=C\c3cn(C)c4ccccc34)C2=O)c1`, `CC(=O)C1=C(O)C(=O)N(Cc2ccccc2)C1c1cccc([N+](=O)[O-])c1` (stereo not drawn) is lower in “hERG current change (%, negative = inhibition) at 10uM” value: 16.2% for the first, 12.1% for the second.

Compared with `CC(=O)NC1=NN(C(C)=O)C(C)(c2ccc(Cl)s2)S1` (stereo not drawn), `CC1CC(C)(C)NC(=S)N1CCC(=O)N1CCc2ccccc21` (stereo not drawn) is higher in “hERG current change (%, negative = inhibition) at 10uM” value: -20.6% for the first, 7.46% for the second.

First: COCC1CCN(Cc2nc(-c3ccc4c(c3)OCO4)no2)C1 (stereo not drawn)
Second: COCCN1C(=O)/C(=C/c2cc3c(cc2Br)OCO3)NC1=S
The “hERG current change (%, negative = inhibition) at 10uM” value of the first is lower: -17.1% for the first, 12.6% for the second.

In the case of `COc1ccc(-n2c(C)cc(=O)[nH]c2=O)cc1`, the “hERG current change (%, negative = inhibition) at 10uM” value is reported as 24.6%.
